From the supplement of paper PMC7826260
This is one part of the list. Viral Rep nickase domains cut single-stranded DNA in vitro (3 µM enzyme, 1 h, 37 °C); shown is the middle of each 90-letter strand. Uncut reads are compared with the no-enzyme pool on a log2 scale; uncut sequences lie near 0, cut ones below; no hit call is given. Because reads are shares of a total, they shift together; where an enzyme cuts many sequences, the uncut ones exceed 0.

Key:
Assay in all cases: uncleaved DNA left, log2 of reads against the no-enzyme library (log2 ratio); higher = less cleavage (more negative = more Rep cleavage of the k-mer); sequences stand for … in CTCGTCCG…ACCGGAGA
[1] = tested on: T1, Rep nickase domain of Muscovy duck circovirus
T1 sequence (Rep 1-111, printed without the tag): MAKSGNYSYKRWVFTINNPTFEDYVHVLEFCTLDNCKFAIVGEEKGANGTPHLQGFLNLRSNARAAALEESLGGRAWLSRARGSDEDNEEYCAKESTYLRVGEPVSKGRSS
Procedure: (§1)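 A pool of 90-nt single-stranded DNAs with seven random bases just before the constant AC of the nick site (name = the seven bases) was cut by 3 µM recombinant His6-SUMO-tagged Rep nickase domain (300 nM DNA, 50 mM HEPES pH 8.0, 50 mM NaCl, 1 mM MnCl2, 1 h, 37 °C, three replicates). Uncut DNA was amplified and sequenced.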

[2] = tested on: T2, Rep nickase domain of banana bunchy top virus
T2 sequence (Rep 1-94, printed without the tag): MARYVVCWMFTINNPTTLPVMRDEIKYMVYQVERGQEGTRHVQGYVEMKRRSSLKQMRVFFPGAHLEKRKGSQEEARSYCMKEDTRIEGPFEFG
Procedure: as §1

[3] = tested on: T3, Rep nickase domain of cabbage leaf curl virus
T3 sequence (Rep 1-116, printed without the tag): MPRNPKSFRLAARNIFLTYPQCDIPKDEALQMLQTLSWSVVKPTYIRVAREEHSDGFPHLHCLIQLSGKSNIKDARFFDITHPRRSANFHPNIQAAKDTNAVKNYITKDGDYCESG
Procedure: as §1

[4] = tested on: T4, Rep nickase domain of chickpea chlorotic dwarf virus
T4 sequence (Rep 1-124, printed without the tag): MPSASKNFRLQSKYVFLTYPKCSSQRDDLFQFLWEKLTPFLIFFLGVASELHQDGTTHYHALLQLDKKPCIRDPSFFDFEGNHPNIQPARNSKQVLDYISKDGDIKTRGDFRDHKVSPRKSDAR
Procedure: as §1

[5] = tested on: T5, Rep nickase domain of faba bean necrotic yellows virus
T5 sequence (Rep 1-98, printed without the tag): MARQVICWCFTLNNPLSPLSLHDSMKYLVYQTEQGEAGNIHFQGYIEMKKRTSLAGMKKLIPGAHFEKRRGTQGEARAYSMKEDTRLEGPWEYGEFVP
Procedure: as §1

[6] = tested on: T6, Rep nickase domain of maize striate mosaic virus
T6 sequence (Rep 1-117, printed without the tag): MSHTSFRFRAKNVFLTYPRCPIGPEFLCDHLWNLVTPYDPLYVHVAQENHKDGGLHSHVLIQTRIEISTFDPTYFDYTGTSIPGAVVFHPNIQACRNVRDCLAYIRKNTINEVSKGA
Procedure: as §1

[7] = tested on: T7, Rep nickase domain of porcine circovirus 2
T7 sequence (Rep 2-116, printed without the tag): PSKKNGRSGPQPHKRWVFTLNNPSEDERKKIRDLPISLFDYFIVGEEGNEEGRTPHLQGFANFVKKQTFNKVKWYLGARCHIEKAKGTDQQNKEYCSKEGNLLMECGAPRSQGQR
Procedure: as §1

[8] = tested on: T8, Rep nickase domain of tomato golden mosaic virus
T8 sequence (Rep 1-124, printed without the tag): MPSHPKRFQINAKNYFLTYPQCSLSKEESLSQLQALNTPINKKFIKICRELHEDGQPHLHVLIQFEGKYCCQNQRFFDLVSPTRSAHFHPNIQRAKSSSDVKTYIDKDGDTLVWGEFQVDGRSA
Procedure: as §1

[9] = tested on: T9, Rep nickase domain of tomato yellow leaf curl virus
T9 sequence (Rep 1-136, printed without the tag): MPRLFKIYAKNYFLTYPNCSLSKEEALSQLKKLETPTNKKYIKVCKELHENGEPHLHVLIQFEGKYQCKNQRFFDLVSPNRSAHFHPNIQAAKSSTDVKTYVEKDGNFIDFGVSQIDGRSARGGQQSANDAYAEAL
Procedure: as §1

[10] = tested on: T10, Rep nickase domain of wheat dwarf virus
T10 sequence (Rep 1-137, printed without the tag): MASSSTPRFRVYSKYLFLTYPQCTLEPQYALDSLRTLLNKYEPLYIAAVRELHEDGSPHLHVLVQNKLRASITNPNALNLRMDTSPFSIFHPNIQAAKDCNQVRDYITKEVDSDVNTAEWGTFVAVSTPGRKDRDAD
Procedure: as §1

| Sequence | uncleaved DNA left (log2) [1] | uncleaved DNA left (log2) [2] | uncleaved DNA left (log2) [3] | uncleaved DNA left (log2) [4] | uncleaved DNA left (log2) [5] | uncleaved DNA left (log2) [6] | uncleaved DNA left (log2) [7] | uncleaved DNA left (log2) [8] | uncleaved DNA left (log2) [9] | uncleaved DNA left (log2) [10] |
| --- | --- | --- | --- | --- | --- | --- | --- | --- | --- | --- |
| CGACTTG | -0.0334 | -0.0449 | 0.0113 | 0.65 | 0.0453 | 1.6 | -0.0738 | -0.236 | -0.103 | 0.00803 |
| TAAAGAT | -0.0177 | 0.00232 | -3.18 | -2.77 | -0.112 | 0.799 | 0.0195 | -0.319 | -0.0902 | -1.47 |
| GGGCGCG | 0.053 | -0.000648 | -0.464 | 0.0526 | -0.0872 | -0.165 | 0.0938 | -0.0403 | -0.236 | -0.128 |
| TCCGGCC | -0.0149 | 0.0853 | 0.302 | 0.25 | -0.00531 | 0.0661 | 0.0473 | -0.00928 | -0.08 | -0.0276 |
| ATGATCC | 0.0208 | -0.0594 | 0.0658 | 0.254 | -0.00248 | 0.0831 | 0.0574 | -0.00955 | -0.074 | 0.113 |
| ACGGTAC | -0.0652 | 0.084 | -0.0761 | -0.295 | -0.0429 | -0.242 | 0.0896 | -0.0811 | 0.0426 | 0.0869 |
| AAGCGGC | -0.0675 | -0.103 | -0.0723 | 0.27 | -0.025 | -0.0221 | 0.0922 | 0.102 | -0.114 | -0.0149 |
| GAAGAGG | -0.0361 | 0.021 | 0.403 | 0.854 | 0.0357 | 0.778 | 0.136 | 0.159 | 0.0467 | 0.0698 |
| GTTGTTT | -0.0159 | -0.00892 | 0.307 | 0.73 | -0.0306 | 1.59 | 0.0271 | 0.112 | 0.0979 | -0.0478 |
| CATGCTT | -0.0223 | -1.25 | -0.452 | -2.47 | -0.0979 | -0.864 | -0.98 | 0.0571 | -0.00648 | -0.0317 |
| ATCTTCC | -0.376 | -0.153 | -0.202 | -0.314 | -0.174 | -0.457 | -1.64 | -0.0905 | -0.118 | -0.141 |
| ATAGACA | 0.0443 | 0.0913 | 0.206 | -0.914 | 0.212 | 0.0947 | 0.111 | 0.076 | 0.0108 | 0.13 |
| TATCTAA | 0.0224 | 0.142 | 0.204 | -0.223 | 0.0936 | -0.238 | -0.0409 | -0.0198 | 0.0877 | 0.154 |
| GCTTCTC | -0.0607 | 0.0592 | 0.218 | 0.416 | -0.103 | 0.104 | 0.0138 | -0.0222 | 0.0758 | 0.0251 |
| TAGACCA | 4.78e-05 | 0.167 | 0.137 | -1.27 | 0.00732 | 0.505 | -0.871 | 0.0744 | 0.131 | 0.0876 |
| TATTGGC | 0.0169 | -0.0435 | -0.422 | -0.854 | -0.0454 | -1.16 | -0.00996 | -0.1 | 0.019 | -0.022 |

| Sequence | uncleaved DNA left (log2) [1] | uncleaved DNA left (log2) [2] | uncleaved DNA left (log2) [3] | uncleaved DNA left (log2) [4] | uncleaved DNA left (log2) [5] | uncleaved DNA left (log2) [6] | uncleaved DNA left (log2) [7] | uncleaved DNA left (log2) [8] | uncleaved DNA left (log2) [9] | uncleaved DNA left (log2) [10] |
| --- | --- | --- | --- | --- | --- | --- | --- | --- | --- | --- |
| TGCGTTT | -0.0255 | 0.0257 | -0.337 | -1.05 | 0.119 | -0.777 | -0.0734 | -0.0357 | 0.0435 | -0.115 |
| AATGTGG | 0.0612 | -0.103 | -0.32 | -0.294 | 0.0799 | -1.08 | 0.0938 | 0.0316 | -0.00464 | 0.017 |
| GGCCATA | -0.0362 | -0.0841 | 0.636 | 1.66 | -0.196 | 2.04 | 0.115 | -0.158 | 0.059 | -0.0268 |
| ATGAGAG | 0.0319 | 0.056 | -0.408 | -0.321 | -0.014 | -0.983 | 0.203 | 0.149 | 0.005 | -0.0334 |
| CATAGCC | 0.0981 | 0.0853 | -0.317 | -0.36 | 0.0594 | -1.1 | 0.193 | 0.0475 | 0.0937 | -0.0413 |
| TGCGAGG | -0.0655 | -0.107 | 0.0322 | 0.515 | -0.165 | 1.41 | -0.0887 | -0.034 | -0.0955 | -0.02 |
| ACCCTCT | -0.245 | -0.125 | -0.412 | -2.25 | -0.0842 | -0.881 | -0.326 | -0.0987 | -0.135 | -0.302 |
| GCTATCA | 0.0937 | 0.152 | 0.301 | 0.456 | -0.0607 | 0.73 | 0.00961 | 0.0283 | 0.198 | 0.151 |
| ACCTGCT | -0.391 | -0.031 | -0.776 | -1.23 | 0.027 | -0.895 | -1.42 | -0.0672 | 0.0271 | 0.00538 |
| GTAGTCT | -0.0939 | -0.0333 | 0.17 | 0.591 | -0.121 | 1.67 | -0.124 | -0.00376 | -0.1 | 0.0327 |
| AATCTCA | -0.0157 | 0.0308 | -0.211 | -1.59 | -0.0557 | 0.21 | -0.123 | -0.0621 | 0.00763 | 0.0277 |
| CCTAACG | 0.0279 | -0.0404 | -0.712 | -0.237 | -0.0854 | -1.05 | 0.0651 | -0.0396 | -0.0945 | 0.0181 |
| GTTCTCT | 0.0349 | 0.123 | 0.34 | 0.778 | -0.0617 | 1.74 | 0.0935 | 0.131 | 0.0754 | 0.0895 |
| AAAGAAA | 0.0341 | 0.00202 | 0.0795 | -0.254 | 0.0671 | -0.235 | 0.122 | 0.0893 | -0.0402 | 0.0694 |
| TCGCTAC | -0.0781 | -0.15 | -0.167 | -1.36 | -0.13 | -0.639 | -0.0608 | -0.135 | -0.0199 | -0.211 |
